# Measured values reported in the supplement of paper PMC4604168 (melanoma cell lines).
# This is one part of the list. Many values rest on one well or one pass, so single values are uncertain.
# Legend:
# Test in all cases: cell count relative to DMSO control; melanoma cells; higher = more viable cells
# Details in all cases: library dose: low library concentration; 72 h
# MZ2-MEL = tested on: MZ2-MEL
# MeWo = tested on: MeWo
# RPMI7951 = tested on: RPMI7951
# RVH-421 = tested on: RVH-421
# SkMel28 = tested on: SkMel28
# SkMel2 = tested on: SkMel2
# SkMel30 = tested on: SkMel30
# SkMel5 = tested on: SkMel5
# UACC257 = tested on: UACC257
# UACC62 = tested on: UACC62
# 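Also: cell number obtained by counting DAPI-stained nuclei in high-throughput microscope images with image analysis software, screen run in 1,536-well plates.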
Structure (SMILES),cell count (MZ2-MEL),cell count (MeWo),cell count (RPMI7951),cell count (RVH-421),cell count (SkMel28),cell count (SkMel2),cell count (SkMel30),cell count (SkMel5),cell count (UACC257),cell count (UACC62)
"CC(=O)c1c(C)c2cnc(Nc3ccc(N4CCNCC4)cn3)nc2n(C2CCCC2)c1=O [palbociclib] + Cn1cncc1[C@@](N)(c1ccc(Cl)cc1)c1ccc2c(c1)c(-c1cccc(Cl)c1)cc(=O)n2C [tipifarnib] (first compound 0.04 µM, partner dose 0.01 µM)",71.4%,68.1%,68.5%,60.5%,69.1%,67.4%,63.5%,68.4%,67.5%,67.8%
"Nc1nc(F)nc2c1ncn2[C@@H]1O[C@H](CO)[C@@H](O)[C@@H]1O [fludarabine] + O=C1NC(=O)/C(=C/c2ccc(-c3ccc(F)cc3O)o2)S1 [AS252424] (first compound 0.2 µM, partner dose 1 µM)",103%,30.5%,95.3%,109%,66%,5.1%,13.6%,55.4%,109%,78%
"Nc1nc(F)nc2c1ncn2[C@@H]1O[C@H](CO)[C@@H](O)[C@@H]1O [fludarabine] + OCCn1cc(-c2cnc3nnn(Cc4ccc5ncccc5c4)c3n2)cn1 [PF04217903] (first compound 0.2 µM, partner dose 1 µM)",98%,28.3%,86.8%,96.1%,75.1%,5.34%,18%,46.9%,75.1%,73.4%
"Nc1ccn([C@@H]2O[C@H](CO)[C@@H](O)C2(F)F)c(=O)n1 [gemcitabine] + NC(=O)Nc1cc(-c2cccc(F)c2)sc1C(=O)N[C@H]1CCCNC1 [AZD7762] (first compound 0.0004 µM, partner dose 0.02 µM)",99.4%,86.1%,74.3%,123%,87.4%,102%,122%,92.2%,111%,77.6%
"Nc1ncn([C@H]2C[C@H](O)[C@@H](CO)O2)c(=O)n1 [decitabine] + CN(C)S(=O)(=O)c1ccc2c(c1)/C(=C/c1cc3c([nH]1)CCCC3)C(=O)N2 [SU6656] (first compound 0.1 µM, partner dose 0.4 µM)",90%,91.1%,82.8%,81.9%,89.5%,97.9%,107%,103%,99.8%,80.7%
"Nc1ncn([C@H]2C[C@H](O)[C@@H](CO)O2)c(=O)n1 [decitabine] + COc1cc2ncnc(Nc3ccc(Oc4ccccc4)cc3)c2cc1OC [SrcI1] (first compound 0.1 µM, partner dose 2 µM)",91.4%,95.6%,111%,71.2%,110%,100%,139%,118%,110%,82%
"Nc1ccn([C@@H]2O[C@H](CO)[C@@H](O)C2(F)F)c(=O)n1 [gemcitabine] + COc1cc(Nc2ncc(F)c(Nc3ccc4c(n3)NC(=O)C(C)(C)O4)n2)cc(OC)c1OC [Tamatinib] (first compound 0.0004 µM, partner dose 0.4 µM)",84.8%,90.8%,79.3%,114%,81.5%,100%,93.2%,94.6%,90.4%,81.2%
"CC(=O)c1c(C)c2cnc(Nc3ccc(N4CCNCC4)cn3)nc2n(C2CCCC2)c1=O [palbociclib] + Cc1ccc(NC(=O)c2cccc(N(C)C)c2)cc1NC(=O)c1ccc(O)cc1 [ZM336372] (first compound 0.04 µM, partner dose 2 µM)",66.8%,75%,60.2%,82.8%,73.6%,94.8%,66.9%,74.9%,75.8%,76.5%
"Nc1nc(F)nc2c1ncn2[C@@H]1O[C@H](CO)[C@@H](O)[C@@H]1O [fludarabine] + C[C@@H]1CCN(C(=O)CC#N)C[C@@H]1N(C)c1ncnc2[nH]ccc12 [CP690550] (first compound 0.2 µM, partner dose 1 µM)",97.5%,37.2%,97.9%,117%,74.9%,5.47%,18.4%,52.7%,96.7%,88.7%
"CC(=O)O[C@@]12CO[C@@H]1C[C@H](O)[C@@]1(C)C(=O)[C@H](O)C3=C(C)[C@@H](OC(=O)[C@H](O)[C@@H](NC(=O)OC(C)(C)C)c4ccccc4)C[C@@](O)([C@@H](OC(=O)c4ccccc4)[C@H]21)C3(C)C [Docetaxel] + COc1ccc2c(c1)CCC1C2CCC2(C)C(NCCCCCCN3C(=O)C=CC3=O)CCC12 [U73122] (first compound 0.0001 µM, partner dose 0.4 µM)",44.1%,41.8%,33.8%,69.4%,37.9%,34.9%,34.8%,75.7%,55.7%,38.3%
"CC(=O)c1c(C)c2cnc(Nc3ccc(N4CCNCC4)cn3)nc2n(C2CCCC2)c1=O [palbociclib] + Oc1cc(-c2nc(-c3ccccc3)[nH]c2-c2ccncc2)ccc1Cl [L779450] (first compound 0.04 µM, partner dose 0.2 µM)",64.9%,86.5%,66.2%,98.2%,62.2%,78.9%,78.8%,71.3%,83.2%,65.1%
"Nc1ncn([C@H]2C[C@H](O)[C@@H](CO)O2)c(=O)n1 [decitabine] + COc1ccc(-c2ccc3c(N4CCOCC4)nc(N4C[C@@H](C)O[C@@H](C)C4)nc3n2)cc1CO [KU0063794] (first compound 0.1 µM, partner dose 0.02 µM)",89.6%,103%,92.3%,103%,66.3%,93.8%,94.7%,86.9%,83.1%,99.1%
"CC(=O)O[C@@]12CO[C@@H]1C[C@H](O)[C@@]1(C)C(=O)[C@H](O)C3=C(C)[C@@H](OC(=O)[C@H](O)[C@@H](NC(=O)OC(C)(C)C)c4ccccc4)C[C@@](O)([C@@H](OC(=O)c4ccccc4)[C@H]21)C3(C)C [Docetaxel] + COc1cc(N2CCC(N3CCN(C)CC3)CC2)ccc1Nc1ncc(Cl)c(Nc2ccccc2S(=O)(=O)C(C)C)n1 [NVP-TAE684] (first compound 0.0001 µM, partner dose 0.08 µM)",41.5%,40.6%,35.9%,61.5%,35.2%,41.2%,34.4%,78.2%,39.5%,42%
"Nc1nc(F)nc2c1ncn2[C@@H]1O[C@H](CO)[C@@H](O)[C@@H]1O [fludarabine] + CCCCCCCCCCCC1=C(O)C(=O)C=C(O)C1=O [Embelin] (first compound 0.2 µM, partner dose 1.2 µM)",104%,32.2%,69.8%,83.6%,79.5%,3.76%,14.8%,56.3%,70.3%,90.8%
"Nc1ccn([C@@H]2O[C@H](CO)[C@@H](O)C2(F)F)c(=O)n1 [gemcitabine] + C=CCn1c(=O)c2cnc(Nc3ccc(N4CCN(C)CC4)cc3)nc2n1-c1cccc(C(C)(C)O)n1 [MK1775] (first compound 0.0004 µM, partner dose 0.02 µM)",90.7%,95.1%,91.8%,92.5%,91.9%,82.3%,80.5%,75.7%,86.8%,74.7%
"CC(=O)c1c(C)c2cnc(Nc3ccc(N4CCNCC4)cn3)nc2n(C2CCCC2)c1=O [palbociclib] + O=C(O)c1ccc(-c2c[nH]c3ncc(-c4ccccc4)cc23)cc1C1CCCC1 [GSK650394] (first compound 0.04 µM, partner dose 0.16 µM)",70%,81%,91.8%,102%,68%,79.5%,92%,65.7%,67.4%,72.9%
"CC(=O)O[C@@]12CO[C@@H]1C[C@H](O)[C@@]1(C)C(=O)[C@H](O)C3=C(C)[C@@H](OC(=O)[C@H](O)[C@@H](NC(=O)OC(C)(C)C)c4ccccc4)C[C@@](O)([C@@H](OC(=O)c4ccccc4)[C@H]21)C3(C)C [Docetaxel] + c1cc(-c2cnn3cc(-c4ccc(OCCN5CCCCC5)cc4)cnc23)ccn1 [Dorsomorphin] (first compound 0.0001 µM, partner dose 0.4 µM)",41.5%,39.8%,27.2%,62.5%,35.7%,32.1%,26.2%,69.2%,37.5%,43%
"Nc1ncn([C@H]2C[C@H](O)[C@@H](CO)O2)c(=O)n1 [decitabine] + CC(C)CCN1c2nc(Nc3cc(F)c(O)c(F)c3)ncc2N(C)C(=O)C1C [BID1870] (first compound 0.1 µM, partner dose 0.2 µM)",101%,104%,88.5%,76.3%,65.9%,106%,101%,107%,117%,72.1%
"Nc1nc(F)nc2c1ncn2[C@@H]1O[C@H](CO)[C@@H](O)[C@@H]1O [fludarabine] + CCN(CC)CCCCNc1ncc2cc(-c3cc(OC)cc(OC)c3)c(NC(=O)NC(C)(C)C)nc2n1 [PD173074] (first compound 0.2 µM, partner dose 0.1 µM)",98.4%,24.5%,101%,103%,83.2%,3.76%,19.7%,55.2%,107%,76.5%
"CC(=O)c1c(C)c2cnc(Nc3ccc(N4CCNCC4)cn3)nc2n(C2CCCC2)c1=O [palbociclib] + N#Cc1c(O)c2c(-c3ccc(-c4ccccc4O)cc3)csc2[nH]c1=O [A769662] (first compound 0.04 µM, partner dose 2 µM)",77.8%,70.3%,77.6%,67.4%,64.9%,86.5%,61.8%,72.3%,76.5%,76.4%
"CC(=O)c1c(C)c2cnc(Nc3ccc(N4CCNCC4)cn3)nc2n(C2CCCC2)c1=O [palbociclib] + COC(=O)c1sccc1S(=O)(=O)Nc1ccc(Nc2ccccc2)cc1OC [GSK0660] (first compound 0.04 µM, partner dose 1 µM)",77.6%,77%,72.1%,89.3%,80.9%,79.8%,62.4%,68.7%,91.8%,78.4%
